Our source for the self-cleavage values is the RNAGym collection of RNA variant scans (doi:10.7554/elife.90254).

First the molecules themselves.
B1: LINE1-full (parent)
chain: UACGUAGGUGGUUUUCCCCUGAUAGUGCUAAGGGGGCCUGGAAGUUUGGACUGGGCAGAGCUCAACACAGCGUGGCAAAGUGGCUGUGGCUAGACUGCCUCUCUGGAUUCCUCGUCACUCAGCAGGGCAUCUCUGAGAGAAAUGCC

The source gives no read counts; variants with many changes may rest on few reads.

The data set covers variants of B1. Put plainly: self-cleavage, relative activity (ratio to wild type); higher = more cleavage; in vitro, sequencing; the parent is a self-cleaving ribozyme.
UACGUAGGUGGUCUUCCCCUGAUAGUGCUAAGGGGGCCUGGAAGUUUGGACUGGGCAGAGCUCAACACAGCGUGGCAAUGUGGCUGUGGCUAGACUGCCUCUCUGGAUUCCUCGCCACUCAGCAGGGCAUCCCUGAGAGAAAUGCC: the self-cleavage came out at 1.53.
With UACGUAGGUGGUUUUCCCCUGAUAGUGCUAAGGGGGCCUGGAAGUUUGGACUGGGCAGAGCUCAACACAGCGUGGCAAAGUCGCUGUGGCUAGACUGCCUCUCUGGACUCCUCGUCACUCAGCAGGGCAUCUCUGAGAGGAAUGCC, the self-cleavage was found to be 2.53.
As to UACGUAGGUGGUUUUCCCCUGAUAGUGCUAAGGGGGCCCGGAAGUUUGGACUGGGCGGAGCUCAACACAGCGUGGCCAUGUGGCUGUGGCUAGACUGCCUCUCUGGAUUCCUCGUCACUCAGCAGGGCAUCUCUGAGAGAAAUGCC, the self-cleavage came to 0.
Turning to UACGUAGGUGGCUUUCUCCUGAUAGUGCUAAGGGGGCCUGGGAGUUUGGACUGGGCAGAGCUCAACUCAGCGUGGCAAAGUGGCUGUGGCUAGACAGCCUCUCUGGAUUCCUCGUCACUCAGCAGGGCAUCUCUGAGAGAAAUGCC, the self-cleavage was 0.1.
With UACGUAGGUGGUUUCCCCCUGAUAGAGCUAAGGGGGCCUGGAAGUUUGGACUGGGCAGAGCUCAACACAGCGUGGCAAAGUGGCUGUGGCUAGACUGCCUCUCUGGAUUCCUCGUCACUCAGCGGGGCAUCUCUGAGAGAAAUGCC, the self-cleavage stood at 0.61.
UACGUAGGUGGUUUUCCCCUGAUAGAGCUAAGGGGGCCCGGAAGUUUGGACUGGGCAGAGCUCAACACAGCGUGGCAAAGUGGCUGCGGCUAGACUGCCUCUCUGGAUUCCUCGUCACUCAGCAGGGCAUCUCUGAGGGAAAUGCC: the self-cleavage stood at 0.05.
For UACGUAGGUGGUUUUCCCCUGAUAGUGCUAAGGGAGCCUGGAAGUUAGGACUGGGCAGAGCUCAACACAGCGAGGCAAAGUGGCUGUGGCUAGACCGCCUCUCUGGAUUCCUCGUCACUCAGCAGGGCAUCUCUGAGAGAAAUGCC, the self-cleavage was 0.03.
As for UACGUAGGAGGUUUUCCCCUGAUAGUGCUAAGGGGGCCUGGAAGUUUGGACUGGGCAGAGCUCAACACAGCGUGGCAAAGUGGCUGUGGCUAGUCUGCCUCUCUGGGUUCCUCGUCACUCAGCAGGGCAUCUCUGAGAGAAAUGCC, the figure is 0.33.
UACGUAGGUGGUUUUCCCCUGAUAGUGCUAAGGGGGCCAGGAAGUUUGGGCUGGGCAGAGCCCAACACAGCGUGGCAAAGUGGCUGUGGCUAGACUGCCUCUCUGGAUUCCUCGUCACUCGGCAGGGCAUCUCUGAGAGAAGUGCC: the self-cleavage turned out to be 0.
As for UACGUAGGUGGUUUUCCCCUGAUAGUGCUGAGGGGGCCUGGAAGUCUGGACUGGGCAGAGCUCAACACAGCGUGGCAAAGUGGCUGUGGCUAGACUGCCUCUCUGGAUUCCUCGUCACUCAGCAGGGCACCUCUGAGAGAGAUGCC, the figure is 1.53.
Turning to UACGUAGGUGGUUUUCCCCUGAUAGCGCUAAGGGGGCCUGGAAGUUUGGACUGGGCAGAGCUCAACACUGCGUGGCAAAGUGGCUGUGGCUAGACUGCCUCUCUGGAUUCCUCGUCACUCAGCGGGGCAUCCCUGAGAGAAAUGCC, the self-cleavage came to 0.
As for UACGUAGGUGGUUUUCCCCUGAUAGUGCUAAGGGGGCCUGGAAGUUUGGACUGGGCAGAGCUCAACACAGCGUGGCAAAGUGGCUGUGGCUAGACUGCCCCUCUGGAUUCCUCGUCACUCAGCAGGGCACCUCUGAGAGGAGUGCC, the figure is 0.71; as for UACGUAGGAGGUUUUCCCCUGAUAGUGCUAAGGGGGCCUGGAAGUUUGGACUAGGCAGAGCUCUACACAGCGUGGCAAAGUGGCUGUGGCUAGACUGCCUCUCCGGAUUCCUCGUCACUCAGCAGGGCAUCUCUGAGAGAAAUGCC, 0.65.
As for UACGUAGGUGGUUUUCCCCUGAUAGUGCUAAGGGGGCCUGGAAGUUUGGACUGGGCGGAGCUCAACACAGCGUGGCAAAGUGGCUGUGGCUAGACUGCCUCUCUGGAUUCCUCGUCACUCAGCAGGGCAUCGCUGAGAGUAAUGCC, the self-cleavage was found to be 1.47.
As for UACGUAGGUGGUUUUCCCCUGAUAGUGCUAAGGGGGCCUGGAAGUUUGGACUGGGCAGAGCUCAACACAGCGUGGCAAAGUGGCUGUGGCUAGACUGCCUCUCUGGAUUCCUCGUUACUCAGCAGGGCACCUCUGAGAGAGAUGCC, the figure is 1.09; as for UACGUAGGUGGCUUUCCCCUGAUAGUGCUAAGGGGGCCUGGAAGUUUGGACUGGGCAGAGCUCGACACAGCGUGGCAAAGUGGCUGUGGCUAGACUGCCUCUCUGGAUUCCUCGUCACUCAGCAGGCCAUCUCCGAGAGAAAUGCC, 0.67; as for UACGUAGGCGGUUUUCCCCUGAAAGUGCCAAGGGGGCCUGGAAGUUUGGACUGGGCAGAGCUCAACACAGCGUGACAAAGUGGCUGUGGCUAGACUGCCUCUCUGGAUUCCUCGACACUCAGCCGGGCAUCUCUGAGAGAAAUGCC, 1.65.
As for UACGUAGGUGGUUUUCCCCUGAUAGUGCUAAGGGGGCCUGGAAGUUUGGACUGGGCAGAGCUCAACACAGCGUGGCAAAGUGGCUGAGACUAGACUGCCUCUCUGGAUUCCUCGUCACUCAGCAGGGCAUCUCUGAGAGAAAAGCC, the figure is 0.05.
Take UACAUGGGUGGUUUUCACCUGAUAGUGCUAAGGGGGCCUGGAAGUUUGGACUGGGCAGAGCUCAACACAGCGUGGCAAAGUGGGUGUGGCUAGACUGCCUCUCUGGAUUCCUCGUCACUCAGCAGGGCAUCUCUGAGAGAAAUGCC: the self-cleavage was 0.23.
Turning to UACGUAGAUGGUUUUCCCCUGAUAGUGCUAAGGGGGCCUGGAAGUUUGGACUGGGCAGAGCUCAACACAGCGUGGCGAAGUGGCUGUGGCUAGACUGCCUCUCUGGAUUCCUCGUCACUCGGCAGGGCAUCUCUGAGAGAAAUGCC, the self-cleavage came to 3.
